Measurements published in PubChem BioAssay AID1347165 (National Center for Advancing Translational Sciences (NCATS), 2019).
Screen size: about 220,000 compounds; about 5,700 (2.6%) were called active. The shares of active, inactive and inconclusive entries below differ from those in the screen. Calls follow the shape of the dose curve; as a rule, active = well fitted inhibition curve with a large enough effect; inconclusive = small, poorly fitted or top-dose-only effect; inactive = no such curve, though single readings can be large or run the other way. Where the call is inconclusive, the potency comes from a doubtful curve fit.
Also: nearly all actives have a fitted effect of over 70% in size.
For activity change, negative = inhibition in this document: 0% is about no effect.
Potency is read from the fitted curve at half-maximal effect; tags tell the direction and shape of the fitted curve.

Each molecule was assayed against Lysine-specific demethylase 5B (Homo sapiens) (UniProt Q9UGL1) (assay: Primary screen for KDM5B Histone Demethylases FDH-coupled qHTS). Conditions: FDH-coupled NADH fluorescence (FDH is formaldehyde dehydrogenase); activity change, negative = inhibition: at 57.7 µM (top of the series) unless noted.
Chain of UniProt Q9UGL1 (Q9UGL1 whole entry, looked up): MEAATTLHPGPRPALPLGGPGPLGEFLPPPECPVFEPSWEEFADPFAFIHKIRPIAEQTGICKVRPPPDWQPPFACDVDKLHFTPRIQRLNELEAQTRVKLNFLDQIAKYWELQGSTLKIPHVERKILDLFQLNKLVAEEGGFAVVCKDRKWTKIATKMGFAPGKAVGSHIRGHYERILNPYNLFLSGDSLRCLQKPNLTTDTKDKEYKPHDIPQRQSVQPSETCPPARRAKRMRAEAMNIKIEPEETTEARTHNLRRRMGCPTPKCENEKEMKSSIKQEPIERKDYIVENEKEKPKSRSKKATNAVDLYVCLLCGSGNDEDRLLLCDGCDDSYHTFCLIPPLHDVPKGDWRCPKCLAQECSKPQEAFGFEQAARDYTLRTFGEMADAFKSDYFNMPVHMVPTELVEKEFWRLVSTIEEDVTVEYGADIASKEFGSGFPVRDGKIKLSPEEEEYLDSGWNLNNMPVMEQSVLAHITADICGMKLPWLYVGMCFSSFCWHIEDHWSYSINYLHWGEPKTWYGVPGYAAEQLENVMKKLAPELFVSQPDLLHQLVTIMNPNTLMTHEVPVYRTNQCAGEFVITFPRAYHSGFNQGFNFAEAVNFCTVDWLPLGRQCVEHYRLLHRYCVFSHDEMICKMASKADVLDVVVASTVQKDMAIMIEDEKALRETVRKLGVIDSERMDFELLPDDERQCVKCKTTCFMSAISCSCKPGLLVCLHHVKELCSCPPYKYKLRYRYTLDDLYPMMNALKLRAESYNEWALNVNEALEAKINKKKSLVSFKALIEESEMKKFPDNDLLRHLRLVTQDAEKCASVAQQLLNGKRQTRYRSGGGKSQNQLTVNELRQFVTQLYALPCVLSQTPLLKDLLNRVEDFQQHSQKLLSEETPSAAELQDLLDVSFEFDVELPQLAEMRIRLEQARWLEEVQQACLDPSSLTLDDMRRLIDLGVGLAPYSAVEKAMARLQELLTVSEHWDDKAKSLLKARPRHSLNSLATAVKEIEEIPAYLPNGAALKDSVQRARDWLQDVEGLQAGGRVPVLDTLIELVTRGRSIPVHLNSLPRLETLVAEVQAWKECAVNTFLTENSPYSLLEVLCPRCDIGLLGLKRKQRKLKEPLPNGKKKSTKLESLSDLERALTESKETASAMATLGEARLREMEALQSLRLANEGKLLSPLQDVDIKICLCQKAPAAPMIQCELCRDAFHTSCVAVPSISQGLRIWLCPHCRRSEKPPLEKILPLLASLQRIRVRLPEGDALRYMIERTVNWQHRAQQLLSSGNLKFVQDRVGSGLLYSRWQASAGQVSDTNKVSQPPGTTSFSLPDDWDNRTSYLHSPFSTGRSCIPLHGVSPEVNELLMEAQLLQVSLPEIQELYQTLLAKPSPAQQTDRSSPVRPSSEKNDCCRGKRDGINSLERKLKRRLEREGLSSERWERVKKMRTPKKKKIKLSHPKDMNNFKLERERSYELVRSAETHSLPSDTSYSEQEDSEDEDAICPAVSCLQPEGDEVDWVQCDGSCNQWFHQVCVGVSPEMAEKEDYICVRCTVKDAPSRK
In short: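 Coupled FDH/NAD⁺ fluorescence readout. KDM5BΔAP 200 nM final; compound titration, 10 min RT preincubation; substrate mix 12.5 µM H3K4me3, 25 µM 2-OG, 50 µM Fe(II), 100 µM ascorbate, 0.25 mM NAD⁺, 0.25 U/mL FDH; ΔRFU over 30 min.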
For `CC(=O)N1CCCN(c2nc3ncccc3o2)CC1`, the Potency was inconclusive: 39.8 µM [inhibitor, partial curve].
In the case of `COc1ccc(C)cc1NC(=O)Cn1ccn2nc(-c3ccccc3)c(CO)c2c1=O`, the Potency is reported as inconclusive: 20 µM [inhibitor, partial curve].
In the case of `COc1ccc(CCNC(=O)c2cc(=O)c3cc(C)cc(C)c3o2)cc1OC`, the Potency is reported as inconclusive: 28.2 µM [inhibitor, partial curve, poor fit].
In the case of `COc1ccc2nc(C)c3c(c2c1)OC(C(C)(Cl)Br)C3` (stereo not given), the Potency is reported as inconclusive: 20 µM [inhibitor, single point].
For `N#CC1(NC(=O)COc2cccc(C(F)(F)F)c2)CCCCC1`, the “activity change, negative = inhibition” value was inactive: 24.9%.
For `COCCC(=O)N[C@H]1CC[C@]2(C)CCC([C@H](C)C(=O)NCc3cccs3)[C@H](O)[C@H]2[C@@H]1C` (stereo not given in full), the “activity change, negative = inhibition” value was inactive: 6.08%.
In the case of `CCOc1ccc2nc(N3C(=O)C(O)=C(C(=O)c4ccco4)C3c3ccco3)sc2c1` (stereo not given), the Potency is reported as inconclusive: 28.2 µM [inhibitor, partial curve, poor fit].
For `CN1C(=O)[C@@H]2C[C@@H](CN2C2CCC2)Oc2ccccc21`, the Potency was inconclusive: 50.1 µM [inhibitor, partial curve, poor fit].
With `CCC(NC(=O)Nc1cc(Cl)ccc1OC)c1c(-n2cccc2)sc2c1CCN(C)C2` (stereo not given) the Potency was inconclusive: 15.8 µM [inhibitor, partial curve, poor fit].
In the case of `COC(=O)[C@@H]1Cc2c([nH]c3ccccc23)[C@H]2C[C@@H](NCCN(C)C)C[C@@H](c3cccc(Cl)c3)N21`, the “activity change, negative = inhibition” value is reported as inactive: 14.3%.
`COc1ccccc1COCC(O)CNCCc1ccc(C(F)(F)F)cc1` (stereo not given) was tested, and the Potency was inconclusive: 35.5 µM [inhibitor, single point].
`COc1ccc(OCCn2nnc3sc4c(c3c2=O)CCC(C(C)(C)C)C4)cc1` (stereo not given) was tested, and the activity change, negative = inhibition was inconclusive: -33.1% [inhibitor].
`CC1CCN(c2nc3c(-c4cccc(Br)c4)nnn3c3ccccc23)CC1` was tested, and the “activity change, negative = inhibition” value was inactive: -18.4%.
For `c1ccc(CCc2nnc3n2CCNCC3)cc1`, the Potency was inconclusive: 22.4 µM [inhibitor, single point].
For `Cc1cccc(NC(=O)c2cc(-c3ccc(C)o3)nc3ccccc23)n1`, the Potency was inconclusive: 28.2 µM [inhibitor, partial curve, poor fit].
For `O=C(Nc1cccc(F)c1)c1cc2n(n1)CC(c1ccc(Cl)cc1)OC2` (stereo not given), the Potency was active: 22.4 µM.
`c1ccc(CNCCN2CCCC2)nc1` was tested, and the “activity change, negative = inhibition” value was inactive: 27.7%.
For `CCn1cc(C(=O)N2CCN(CC(=O)NCc3ccccc3)CC2)c2ccccc21`, the “activity change, negative = inhibition” value was inactive: 11.9%.
For `COc1ccc(C(=O)Nc2c(C)nc(Nc3ccc(C)cc3)nc2Nc2ccc(C)cc2)cc1OC`, the “activity change, negative = inhibition” value was inactive: 17.6%.
`CN1CCN(CCCNc2nc(CO)nc3ccccc23)CC1` was tested, and the “activity change, negative = inhibition” value was inactive: -1.07%.
For `CCCN(CCC)CC(O)Cn1cc(/C=C/C(=O)c2ccc(OC)cc2)c2ccccc21` (stereo not given), the Potency was inconclusive: 5.01 µM [inhibitor, partial curve, poor fit].
In the case of `Cn1ccnc1C(NC(=O)c1nn(C)c(=O)c2ccccc12)c1ccccc1` (stereo not given), the Potency is reported as inconclusive: 17.8 µM [inhibitor, partial curve, poor fit].
For `Cc1ccc(CNS(=O)(=O)c2ccc(-c3cnc(C4CC4)o3)cc2)cc1`, the Potency was inconclusive: 17.8 µM [inhibitor, partial curve, poor fit].
`COc1ccc(NC(=O)Cc2c(C)c3ccc(OC)c(C)c3oc2=O)cc1` was tested, and the Potency was inconclusive: 31.6 µM [inhibitor, single point].
With `CN(C)C(=O)C1CCC(C)(C(=O)O)C1(C)CI` (stereo not given) the “activity change, negative = inhibition” value was inactive: -13.5%.
For `Cc1cccc(CSc2nc3cc(C(=O)NC4CCCC4)ccc3c(=O)n2Cc2ccccc2)c1`, the Potency was inconclusive: 50.1 µM [inhibitor, single point].
`CCOC(=O)N1CCN(C(=O)Cn2c(=O)[nH]c3ccccc3c2=O)CC1` was tested, and the “activity change, negative = inhibition” value was inactive: -7.57%.
`CN(Cc1cc(-c2cccs2)n[nH]1)C[C@@H]1CCCN2CCCC[C@H]12` was tested, and the “activity change, negative = inhibition” value was inactive: -16.8%.
In the case of `CN(C)CCNc1ncnc2oc(-c3ccccc3)c(-c3ccccc3)c12`, the Potency is reported as inconclusive: 31.6 µM [inhibitor, partial curve, poor fit].
In the case of `CCO[C@H]1CN(Cc2ccccc2OCCn2ccnc2)C[C@@H]1O`, the “activity change, negative = inhibition” value is reported as inactive: -5.65%.
For `CS(=O)(=O)c1ccc2nc(NC(=O)COc3ccc(F)cc3)sc2c1`, the “activity change, negative = inhibition” value was inactive: -13%.
For `O=C(c1ccc(-n2cnnn2)cc1)N(CCc1cccs1)Cc1cccs1`, the “activity change, negative = inhibition” value was inactive: -3%.
`COc1ccc2c(c1)cc(C(=O)Nc1cccc(C)c1C)n2C` was tested, and the “activity change, negative = inhibition” value was inactive: -7.51%.
`CC(C)COc1ccc(C(=O)Nc2cccc3ncccc23)cc1` was tested, and the Potency was inconclusive: 39.8 µM [inhibitor, single point].
With `CC1=C(C(=O)N(C)C)C(c2ccc(Cl)cc2)N2C(CC(=O)NCc3ccco3)=CSC2=N1` (stereo not given) the Potency was inconclusive: 17.8 µM [inhibitor, partial curve, poor fit].
